# Laboratory results from paper PMC5515408.
# Some of the results follow. At the low end of the ranking, values are background and their order means little.
# Tested on: MYC (p64) + MAX (p21), in MYC:MAX
# Assay: protein-binding microarray (anti-MAX antibody)
# Details: PBM: 15 mM Tris-HCl pH 7.5, 100 mM KCl, 0.075% NP40, 7.5 mM beta-mercaptoethanol, 375 ng/ul BSA, 8 ng/ul poly(dA-dT):(dA-dT), 550 ng complex, 60 min, room …; high values mean tight binding; double strand, one strand shown; sequences stand for … in CCGGC…TTAATAGCTAAGATTACTATATCGACG
row,Sequence,binding signal (log2 normalized fluorescence)
1,TGACACGTGAAT,0.712
2,TGACATGTGGAA,0.707
3,TGAGACCGGGTA,-0.145
4,TGACACGAGCTT,0.454
5,TGAACCAATGTA,0.186
6,TGACGCATTGTA,0.286
7,TGACTCAAAGTA,-0.0171
8,TGAGTATAAGTA,-0.121
9,AGATACGTGGTA,0.393
10,TGAGACCACGTA,0.323
11,TGAGGCTACGTA,-0.0825
12,TGAGGTCTGGTA,0.0604
13,TGATGTGCCGTA,0.144
14,TGAAATTAGGTA,0.0434
15,TGAGACCTGCTA,-0.0388
16,TGAACTACGGTA,0.0565
17,TGATGATGCGTA,0.112
18,TGAAGTACCGTA,0.085
19,TGAGGGGGAGTA,0.823
20,TGACTTTGCGTA,0.207
21,TGGCACGTGGTG,0.954
22,TGATGGCTAGTA,0.117
23,TGATTATGTGTA,0.113
24,TGAACGAAGGTA,0.0182
25,TGATAATTCGTA,-0.175

row,Sequence,binding signal (log2 normalized fluorescence)
1,TGACCTCAGGTA,0.101
2,CGTCACGTGGTT,0.74
3,TGATGTATAGTA,0.0515
4,TGATCTCGTGTA,0.41
5,TGAGGCCGGGTA,-0.114
6,TGACTGAGCGTA,0.00564
7,TGATTCTATGTA,-0.0824
8,TGACGTACGGTA,0.112
9,TGACAGCTGGTA,0.223
10,TGAACTGCGGTA,0.0357
11,TGATCTGCAGTA,-0.109
12,TGATGACTTGTA,0.195
13,TGACAATGGGTA,0.136
14,TGACTTGCGGTA,0.185
15,TGACTGCGTGTA,0.238
16,TGACTAAATGTA,0.0225
17,TGATTAATGGTA,0.103
18,TGATATGATGTA,0.0577
19,TGACCAGGGGTA,0.0822
20,TGACAGACAGTA,0.212
21,TGAAAGTTCGTA,-0.253
22,TTACACATGATA,0.494
23,TGATCCGGTGTA,0.0468
24,TGGCACGCGGTC,0.784
25,TGAAGACCGGTA,0.156

row,Sequence,binding signal (log2 normalized fluorescence)
1,TGAACCCACGTA,0.15
2,TACTATGCCATG,0.159
3,TCAGACGTGGTA,0.391
4,CGTCACGTGGTA,0.809
5,CACCGTCCTAGC,0.19
6,TGAGACCGTGTA,0.0583
7,AGACACGTGATA,0.851
8,TGACTCGTTGAA,0.199
9,TGAGGCCCTGTA,-0.0678
10,CGACACGTGCTT,0.852
11,TGAACGTCGGTA,0.0849
12,TGTCACGTGGTA,0.706
13,TGAAGAATGGTA,0.0608
14,TGACGGATTGTA,-0.0678
15,TGATTAGCGGTA,-0.0877
16,TTGGTGTACACT,0.328
17,TGAGAAGAGGTA,-0.0553
18,TGACGACGTGTA,0.332
19,TGATAAACCGTA,0.086
20,TGAAAAGATGTA,-0.0584
21,TGAATGCGAGTA,0.339
22,TGATGCGACGTA,0.209
23,TGAGCCCTGGTA,0.0851
24,TGAGACGGGGTC,0.233
25,TGACAAGCTGTA,0.207

row,Sequence,binding signal (log2 normalized fluorescence)
1,TGAATCTATGTA,-0.0794
2,TGAACAATGGTA,0.0607
3,TGATACGTGGTC,0.408
4,TGATCCCGTGTA,0.193
5,TGAGCTCGTGTA,0.336
6,TGACACGTCGAA,0.472
7,TGATCCTGTGTA,0.0933
8,TGAATCACTGTA,0.032
9,TGACACGGGCTA,0.316
10,TGATAATACGTA,0.217
11,TGAAATGCAGTA,0.128
12,TGACACGTGGGA,0.669
13,TGAGACAACGTA,0.0501
14,TGAGCATAAGTA,0.257
15,ACTTAGGGGGGT,0.686
16,TGAAATATGGTA,0.0849
17,TGATATACAGTA,-0.169
18,TGAATCGTGGTA,0.403
19,TGACCATCGGTA,0.229
20,TGAAGAATAGTA,-0.307
21,TGATGGAGCGTA,0.118
22,TGAGGGATCGTA,0.0857
23,TGAGCGGTTGTA,0.0749
24,TGATTCGGAGTA,-0.225
25,TGAATCATAGTA,-0.0174

row,Sequence,binding signal (log2 normalized fluorescence)
1,TGAGGGCGTGTA,0.27
2,TGATCAACCGTA,-0.0564
3,TGATGGGTCGTA,0.0905
4,TTAAACGTGTTA,0.426
5,TGAACTAGCGTA,0.0237
6,TGACCGTCAGTA,0.104
7,TGACGTGCGGTA,0.451
8,TGACGACATGTA,0.297
9,TGACCGTCTGTA,0.169
10,TGATCTGTTGTA,-0.0552
11,TGAAGTAAAGTA,0.000186
12,GAACACGTGGTA,0.76
13,TGAGTAATCGTA,-0.0224
14,TGAAGCGCGGTA,0.476
15,TGATCCCAGGTA,0.0304
16,TGACTCTCAGTA,-0.0565
17,TGACACGTTTTA,0.512
18,TGAAAGTAAGTA,-0.144
19,TGACATATTGTA,0.296
20,TGAGGGCAGGTA,0.0191
21,TGAAAGTTAGTA,-0.0592
22,TGACAACATGTA,0.421
23,TGAGTCGGTGTA,0.0257
24,TGAGCTCGGGTA,-0.139
25,TGAGGGTCAGTA,0.0413

row,Sequence,binding signal (log2 normalized fluorescence)
1,TGAACCATTGTA,0.175
2,TGAAATATTGTA,-0.0137
3,TGAGGTGGGGTA,0.453
4,TGAACAATTGTA,0.0107
5,TGAGGTCTAGTA,0.0313
6,TGAAAATATGTA,0.0359
7,TGAACCTATGTA,0.08
8,TGAAGGTGAGTA,-0.00294
9,TGAACAGTAGTA,-0.0391
10,TGAAGCTCTGTA,-0.0739
11,TGAAATCGGGTA,-0.159
12,TGACCCGTGGCT,0.285
13,TGAGCGGCTGTA,-0.0187
14,TGATTGGGAGTA,-0.194
15,TGACGCCGGGTA,0.0934
16,TGAGGAGCTGTA,-0.188
17,TGAGGAAGAGTA,-0.245
18,TGAGGTCGTGTA,0.121
19,TGGTGCGTGGTA,0.373
20,TGAAATCTTGTA,-0.14
21,TGAGCCTCTGTA,-0.03
22,TGAAGCATAGTA,0.127
23,TGACACGTGGTA,0.825
24,TGAACAACTGTA,0.132
25,TGATCCCGAGTA,0.0832

row,Sequence,binding signal (log2 normalized fluorescence)
1,TGAGGTGTGGTA,0.294
2,TGACCGCAGGTA,0.143
3,TGATTAAATGTA,-0.0844
4,TGAGGCGGAGTA,-0.0527
5,TGAGTCGCAGTA,0.00125
6,TGACACAGAGTA,0.0114
7,TGATGGAGAGTA,0.0359
8,TGAGCTGCTGTA,-0.0108
9,TGACCCAGGGTA,-0.0899
10,TGCCACGTGGTA,0.82
11,TGAGGGGCCGTA,0.0961
12,TGACTGGTGGTA,0.126
13,TAGGACGTGGTA,0.294
14,TGACACGCAATA,0.407
15,TGAAGAGAGGTA,0.031
16,AAACACGATGTT,0.827
17,TGATTGCCCGTA,0.0198
18,TGAATGGTAGTA,0.179
19,TGACTTTCCGTA,0.0346
20,TGAATCCTGGTA,-0.0163
21,TGAAGCAGAGTA,-0.0166
22,TGACACGGTTTA,0.34
23,TGAAGACCTGTA,0.0334
24,TGAATGGGGGTA,0.667
25,AGACACGATGTA,0.758
